Assay results published in publication PMC10476561.
Read-outs that look alike come from different tables or passages of the source. Results are given in words; binding and its absence hold for the method and conditions named. Some entries that bind do so weakly or less than the wild type. For some assays here: Tags and fused reporters may be left off the sequences shown.

The chains behind the UniProt entries cited, without tags or fusion partners. Where a name states a change or a piece, a line headed by the entry shows the natural chain unless it says otherwise. Residues count along the entry.
UniProt Q05086: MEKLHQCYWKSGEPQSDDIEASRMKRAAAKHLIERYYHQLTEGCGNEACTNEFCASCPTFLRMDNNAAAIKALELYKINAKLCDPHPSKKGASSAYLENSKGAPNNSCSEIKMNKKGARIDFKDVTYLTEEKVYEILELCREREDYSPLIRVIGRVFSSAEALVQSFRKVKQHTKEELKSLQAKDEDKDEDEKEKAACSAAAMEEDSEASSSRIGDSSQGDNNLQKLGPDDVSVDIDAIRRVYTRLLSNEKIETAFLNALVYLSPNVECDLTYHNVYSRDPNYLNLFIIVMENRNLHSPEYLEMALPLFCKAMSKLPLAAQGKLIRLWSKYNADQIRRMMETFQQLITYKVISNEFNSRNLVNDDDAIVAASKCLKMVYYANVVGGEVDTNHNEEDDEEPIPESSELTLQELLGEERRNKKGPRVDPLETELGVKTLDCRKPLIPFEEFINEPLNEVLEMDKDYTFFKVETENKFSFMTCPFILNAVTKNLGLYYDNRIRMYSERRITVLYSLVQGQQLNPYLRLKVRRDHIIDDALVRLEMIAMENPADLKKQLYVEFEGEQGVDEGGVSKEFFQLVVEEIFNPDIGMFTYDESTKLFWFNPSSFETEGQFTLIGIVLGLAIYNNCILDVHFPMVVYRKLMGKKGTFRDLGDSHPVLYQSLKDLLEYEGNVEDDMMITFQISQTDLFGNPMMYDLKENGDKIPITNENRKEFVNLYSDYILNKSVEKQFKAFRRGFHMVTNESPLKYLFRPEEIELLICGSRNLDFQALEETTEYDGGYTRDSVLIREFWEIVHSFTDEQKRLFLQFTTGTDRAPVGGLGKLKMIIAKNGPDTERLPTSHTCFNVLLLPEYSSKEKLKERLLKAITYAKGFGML
GST-E6AP (1-280), N-terminal region of E6AP: residues 1-280 of Q05086
UniProt P05120: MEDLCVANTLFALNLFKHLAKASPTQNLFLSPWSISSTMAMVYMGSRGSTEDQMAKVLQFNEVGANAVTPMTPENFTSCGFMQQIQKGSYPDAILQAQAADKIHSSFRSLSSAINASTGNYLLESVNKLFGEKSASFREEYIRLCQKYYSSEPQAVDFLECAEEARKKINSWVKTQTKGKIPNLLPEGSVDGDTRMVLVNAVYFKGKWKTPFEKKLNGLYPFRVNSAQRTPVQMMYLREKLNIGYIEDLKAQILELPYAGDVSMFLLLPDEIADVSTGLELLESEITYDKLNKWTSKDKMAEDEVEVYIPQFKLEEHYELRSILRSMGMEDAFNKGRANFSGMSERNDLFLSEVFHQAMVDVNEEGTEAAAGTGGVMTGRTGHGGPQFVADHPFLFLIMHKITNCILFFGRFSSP
UniProt P49736: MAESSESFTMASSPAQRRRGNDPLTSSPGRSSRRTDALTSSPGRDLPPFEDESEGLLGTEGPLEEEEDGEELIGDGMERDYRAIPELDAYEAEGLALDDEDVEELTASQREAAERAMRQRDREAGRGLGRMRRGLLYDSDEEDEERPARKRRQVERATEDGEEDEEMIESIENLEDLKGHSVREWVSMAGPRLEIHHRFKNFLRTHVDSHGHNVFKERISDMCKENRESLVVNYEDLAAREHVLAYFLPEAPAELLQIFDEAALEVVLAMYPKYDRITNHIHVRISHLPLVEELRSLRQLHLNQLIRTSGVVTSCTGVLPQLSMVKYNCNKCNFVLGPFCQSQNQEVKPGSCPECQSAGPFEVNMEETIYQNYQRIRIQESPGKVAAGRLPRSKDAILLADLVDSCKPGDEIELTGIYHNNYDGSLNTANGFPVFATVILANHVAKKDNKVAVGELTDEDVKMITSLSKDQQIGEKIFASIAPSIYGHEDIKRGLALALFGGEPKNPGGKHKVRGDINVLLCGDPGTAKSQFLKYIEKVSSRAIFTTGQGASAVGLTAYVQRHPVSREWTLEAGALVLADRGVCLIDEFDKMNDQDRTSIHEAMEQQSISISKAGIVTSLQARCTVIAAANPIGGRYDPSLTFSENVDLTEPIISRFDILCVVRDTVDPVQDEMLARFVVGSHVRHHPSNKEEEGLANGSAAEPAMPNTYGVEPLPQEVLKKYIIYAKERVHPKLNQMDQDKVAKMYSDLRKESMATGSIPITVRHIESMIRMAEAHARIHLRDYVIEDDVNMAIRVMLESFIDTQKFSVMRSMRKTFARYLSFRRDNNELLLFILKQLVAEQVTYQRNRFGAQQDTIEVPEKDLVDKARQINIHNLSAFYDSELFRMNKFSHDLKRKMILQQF

Experiments:
[1] = target: human E6AP (yeast two-hybrid bait) (human) (UniProt Q05086); experiment: two-hybrid; screen with human E6AP as bait; survival on SD-4 (deficient in Ura, His, Leu and Trp) and X-Gal staining; hits identified by Sanger sequencing; MCM6 validated in yeast cells
GST-E6AP (human) [2] = target: GST-E6AP (human) (UniProt Q05086); experiment: pull-down; GST pull-down: 10 μg purified His6-tagged protein and 10 μg GST-tagged protein with Glutathione Sepharose 4B, 4 °C overnight; 20 mM Tris-Cl, 100 mM NaCl, 5 mM MgCl2, 1 mM EDTA, 1 mM DTT, 0.5% NP-40, 10 mg/mL BSA, pH 8.0; five washes; blots with anti-GST and anti-His; both purified
GST-E6AP (human) [3] = target: GST-E6AP (human) (UniProt Q05086); experiment: as above; remark: listed apart in the source
[4] = target: GST-E6AP (1-280), N-terminal region of E6AP (human) (UniProt Q05086); experiment: as above

Molecule	binding [1]	also measured
SERPINB2 (yeast two-hybrid prey) (from UniProt P05120 1-415)	binds	
His6-MCM2 (from UniProt P49736 1-904)		binding (GST-E6AP (human) [2]): binds
CRP (yeast two-hybrid prey) (protein, UniProt P02741 1-224) MEKLLCFLVLTSLSHAFGQTDMSRKAFVFPKESDTSYVSLKAPLTKPLKAFTVCLHFYTELSSTRGYSIFSYATKRQDNEILIFWSKDIGYSFTVGGSEILFEVPEVTVAPVHICTSWESASGIVEFWVDGKPRVRKSLKKGYTVGAEASIILGQEQDSFGGNFEGSQSLVGDIGNVNMWDFVLSPDEINTIYLGGPFSPNVLNWRALKYEVQGEVFTKPQLWP	binds	
His6-MCM5 (protein, UniProt P33992 1-734) MSGFDDPGIFYSDSFGGDAQADEGQARKSQLQRRFKEFLRQYRVGTDRTGFTFKYRDELKRHYNLGEYWIEVEMEDLASFDEDLADYLYKQPAEHLQLLEEAAKEVADEVTRPRPSGEEVLQDIQVMLKSDASPSSIRSLKSDMMSHLVKIPGIIIAASAVRAKATRISIQCRSCRNTLTNIAMRPGLEGYALPRKCNTDQAGRPKCPLDPYFIMPDKCKCVDFQTLKLQELPDAVPHGEMPRHMQLYCDRYLCDKVVPGNRVTIMGIYSIKKFGLTTSRGRDRVGVGIRSSYIRVLGIQVDTDGSGRSFAGAVSPQEEEEFRRLAALPNVYEVISKSIAPSIFGGTDMKKAIACLLFGGSRKRLPDGLTRRGDINLLMLGDPGTAKSQLLKFVEKCSPIGVYTSGKGSSAAGLTASVMRDPSSRNFIMEGGAMVLADGGVVCIDEFDKMREDDRVAIHEAMEQQTISIAKAGITTTLNSRCSVLAAANSVFGRWDETKGEDNIDFMPTILSRFDMIFIVKDEHNEERDVMLAKHVITLHVSALTQTQAVEGEIDLAKLKKFIAYCRVKCGPRLSAEAAEKLKNRYIIMRSGARQHERDSDRRSSIPITVRQLEAIVRIAEALSKMKLQPFATEADVEEALRLFQVSTLDAALSGTLSGVEGFTSQEDQEMLSRIEKQLKRRFAIGSQVSEHSIIKDFTKQKYPEHAIHKVLQLMLRRGEIQHRMQRKVLYRLK		binding (GST-E6AP (human) [3]): no binding (tested: 10 μg of each protein)
His6-MCM3 (protein, UniProt P25205 1-808) MAGTVVLDDVELREAQRDYLDFLDDEEDQGIYQSKVRELISDNQYRLIVNVNDLRRKNEKRANRLLNNAFEELVAFQRALKDFVASIDATYAKQYEEFYVGLEGSFGSKHVSPRTLTSCFLSCVVCVEGIVTKCSLVRPKVVRSVHYCPATKKTIERRYSDLTTLVAFPSSSVYPTKDEENNPLETEYGLSVYKDHQTITIQEMPEKAPAGQLPRSVDVILDDDLVDKAKPGDRVQVVGTYRCLPGKKGGYTSGTFRTVLIACNVKQMSKDAQPSFSAEDIAKIKKFSKTRSKDIFDQLAKSLAPSIHGHDYVKKAILCLLLGGVERDLENGSHIRGDINILLIGDPSVAKSQLLRYVLCTAPRAIPTTGRGSSGVGLTAAVTTDQETGERRLEAGAMVLADRGVVCIDEFDKMSDMDRTAIHEVMEQGRVTIAKAGIHARLNARCSVLAAANPVYGRYDQYKTPMENIGLQDSLLSRFDLLFIMLDQMDPEQDREISDHVLRMHRYRAPGEQDGDAMPLGSAVDILATDDPNFSQEDQQDTQIYEKHDNLLHGTKKKKEKMVSAAFMKKYIHVAKIIKPVLTQESATYIAEEYSRLRSQDSMSSDTARTSPVTARTLETLIRLATAHAKARMSKTVDLQDAEEAVELVQYAYFKKVLEKEKKRKKRSEDESETEDEEEKSQEDQEQKRKRRKTRQPDAKDGDSYDPYDFSDTEEEMPQVHTPKTADSQETKESQKVELSESRLKAFKVALLDVFREAHAQSIGMNRLTESINRDSEEPFSSVEIQAALSKMQDDNQVMVSEGIIFLI		binding (GST-E6AP (human) [3]): no binding (tested: 10 μg of each protein)
MSTO1 (yeast two-hybrid prey) (protein, UniProt Q9BUK6 1-570) MAGGAREVLTLQLGHFAGFVGAHWWNQQDAALGRATDSKEPPGELCPDVLYRTGRTLHGQETYTPRLILMDLKGSLSSLKEEGGLYRDKQLDAAIAWQGKLTTHKEELYPKNPYLQDFLSAEGVLSSDGVWRVKSIPNGKGSSPLPTATTPKPLIPTEASIRVWSDFLRVHLHPRSICMIQKYNHDGEAGRLEAFGQGESVLKEPKYQEELEDRLHFYVEECDYLQGFQILCDLHDGFSGVGAKAAELLQDEYSGRGIITWGLLPGPYHRGEAQRNIYRLLNTAFGLVHLTAHSSLVCPLSLGGSLGLRPEPPVSFPYLHYDATLPFHCSAILATALDTVTVPYRLCSSPVSMVHLADMLSFCGKKVVTAGAIIPFPLAPGQSLPDSLMQFGGATPWTPLSACGEPSGTRCFAQSVVLRGIDRACHTSQLTPGTPPPSALHACTTGEEILAQYLQQQQPGVMSSSHLLLTPCRVAPPYPHLFSSCSPPGMVLDGSPKGAAVESIPVFGALCSSSSLHQTLEALARDLTKLDLRRWASFMDAGVEHDDVAELLQELQSLAQCYQGGDSLVD	binds	
ALDH1A2 (yeast two-hybrid prey) (protein, UniProt O94788 1-518) MTSSKIEMPGEVKADPAALMASLHLLPSPTPNLEIKYTKIFINNEWQNSESGRVFPVYNPATGEQVCEVQEADKADIDKAVQAARLAFSLGSVWRRMDASERGRLLDKLADLVERDRAVLATMESLNGGKPFLQAFYVDLQGVIKTFRYYAGWADKIHGMTIPVDGDYFTFTRHEPIGVCGQIIPWNFPLLMFAWKIAPALCCGNTVVIKPAEQTPLSALYMGALIKEAGFPPGVINILPGYGPTAGAAIASHIGIDKIAFTGSTEVGKLIQEAAGRSNLKRVTLELGGKSPNIIFADADLDYAVEQAHQGVFFNQGQCCTAGSRIFVEESIYEEFVRRSVERAKRRVVGSPFDPTTEQGPQIDKKQYNKILELIQSGVAEGAKLECGGKGLGRKGFFIEPTVFSNVTDDMRIAKEEIFGPVQEILRFKTMDEVIERANNSDFGLVAAVFTNDINKALTVSSAMQAGTVWINCYNALNAQSPFGGFKMSGNGREMGEFGLREYSEVKTVTVKIPQKNS	binds	
MCM6 (yeast two-hybrid prey) (protein, UniProt Q14566 1-821) MDLAAAAEPGAGSQHLEVRDEVAEKCQKLFLDFLEEFQSSDGEIKYLQLAEELIRPERNTLVVSFVDLEQFNQQLSTTIQEEFYRVYPYLCRALKTFVKDRKEIPLAKDFYVAFQDLPTRHKIRELTSSRIGLLTRISGQVVRTHPVHPELVSGTFLCLDCQTVIRDVEQQFKYTQPNICRNPVCANRRRFLLDTNKSRFVDFQKVRIQETQAELPRGSIPRSLEVILRAEAVESAQAGDKCDFTGTLIVVPDVSKLSTPGARAETNSRVSGVDGYETEGIRGLRALGVRDLSYRLVFLACCVAPTNPRFGGKELRDEEQTAESIKNQMTVKEWEKVFEMSQDKNLYHNLCTSLFPTIHGNDEVKRGVLLMLFGGVPKTTGEGTSLRGDINVCIVGDPSTAKSQFLKHVEEFSPRAVYTSGKASSAAGLTAAVVRDEESHEFVIEAGALMLADNGVCCIDEFDKMDVRDQVAIHEAMEQQTISITKAGVKATLNARTSILAAANPISGHYDRSKSLKQNINLSAPIMSRFDLFFILVDECNEVTDYAIARRIVDLHSRIEESIDRVYSLDDIRRYLLFARQFKPKISKESEDFIVEQYKHLRQRDGSGVTKSSWRITVRQLESMIRLSEAMARMHCCDEVQPKHVKEAFRLLNKSIIRVETPDVNLDQEEEIQMEVDEGAGGINGHADSPAPVNGINGYNEDINQESAPKASLRLGFSEYCRISNLIVLHLRKVEEEEDESALKRSELVNWYLKEIESEIDSEEELINKKRIIEKVIHRLTHYDHVLIELTQAGLKGSTEGSESYEEDPYLVVNPNYLLED	binds	
His6-MCM6 (protein, UniProt Q14566 1-821) MDLAAAAEPGAGSQHLEVRDEVAEKCQKLFLDFLEEFQSSDGEIKYLQLAEELIRPERNTLVVSFVDLEQFNQQLSTTIQEEFYRVYPYLCRALKTFVKDRKEIPLAKDFYVAFQDLPTRHKIRELTSSRIGLLTRISGQVVRTHPVHPELVSGTFLCLDCQTVIRDVEQQFKYTQPNICRNPVCANRRRFLLDTNKSRFVDFQKVRIQETQAELPRGSIPRSLEVILRAEAVESAQAGDKCDFTGTLIVVPDVSKLSTPGARAETNSRVSGVDGYETEGIRGLRALGVRDLSYRLVFLACCVAPTNPRFGGKELRDEEQTAESIKNQMTVKEWEKVFEMSQDKNLYHNLCTSLFPTIHGNDEVKRGVLLMLFGGVPKTTGEGTSLRGDINVCIVGDPSTAKSQFLKHVEEFSPRAVYTSGKASSAAGLTAAVVRDEESHEFVIEAGALMLADNGVCCIDEFDKMDVRDQVAIHEAMEQQTISITKAGVKATLNARTSILAAANPISGHYDRSKSLKQNINLSAPIMSRFDLFFILVDECNEVTDYAIARRIVDLHSRIEESIDRVYSLDDIRRYLLFARQFKPKISKESEDFIVEQYKHLRQRDGSGVTKSSWRITVRQLESMIRLSEAMARMHCCDEVQPKHVKEAFRLLNKSIIRVETPDVNLDQEEEIQMEVDEGAGGINGHADSPAPVNGINGYNEDINQESAPKASLRLGFSEYCRISNLIVLHLRKVEEEEDESALKRSELVNWYLKEIESEIDSEEELINKKRIIEKVIHRLTHYDHVLIELTQAGLKGSTEGSESYEEDPYLVVNPNYLLED		binding (GST-E6AP (human) [3]): binds
His6-MCM6 (1-345), N terminus of MCM6 (domain or fragment, UniProt Q14566 1-345) MDLAAAAEPGAGSQHLEVRDEVAEKCQKLFLDFLEEFQSSDGEIKYLQLAEELIRPERNTLVVSFVDLEQFNQQLSTTIQEEFYRVYPYLCRALKTFVKDRKEIPLAKDFYVAFQDLPTRHKIRELTSSRIGLLTRISGQVVRTHPVHPELVSGTFLCLDCQTVIRDVEQQFKYTQPNICRNPVCANRRRFLLDTNKSRFVDFQKVRIQETQAELPRGSIPRSLEVILRAEAVESAQAGDKCDFTGTLIVVPDVSKLSTPGARAETNSRVSGVDGYETEGIRGLRALGVRDLSYRLVFLACCVAPTNPRFGGKELRDEEQTAESIKNQMTVKEWEKVFEMSQDKN		binding [4]: binds
IL24 (yeast two-hybrid prey) (protein, UniProt Q13007 1-206) MNFQQRLQSLWTLARPFCPPLLATASQMQMVVLPCLGFTLLLWSQVSGAQGQEFHFGPCQVKGVVPQKLWEAFWAVKDTMQAQDNITSARLLQQEVLQNVSDAESCYLVHTLLEFYLKTVFKNYHNRTVEVRTLKSFSTLANNFVLIVSQLQPSQENEMFSIRDSAHRRFLLFRRAFKQLDVEAALTKALGEVDILLTWMQKFYKL	binds	
